Screen size: about 310,000 compounds; about 2,200 (0.71%) showed an effect of 50% or more. The effect is printed as a negative number. The list shows a part of the results.
Molecular target: human ether-à-go-go-related gene (hERG) potassium channel (human, UniProt Q12809)
Assay: primary screen, population patch clamp on CHO cells stably expressing hERG

human ether-à-go-go-related gene (hERG) potassium channel, sequence (Q12809 whole entry, looked up): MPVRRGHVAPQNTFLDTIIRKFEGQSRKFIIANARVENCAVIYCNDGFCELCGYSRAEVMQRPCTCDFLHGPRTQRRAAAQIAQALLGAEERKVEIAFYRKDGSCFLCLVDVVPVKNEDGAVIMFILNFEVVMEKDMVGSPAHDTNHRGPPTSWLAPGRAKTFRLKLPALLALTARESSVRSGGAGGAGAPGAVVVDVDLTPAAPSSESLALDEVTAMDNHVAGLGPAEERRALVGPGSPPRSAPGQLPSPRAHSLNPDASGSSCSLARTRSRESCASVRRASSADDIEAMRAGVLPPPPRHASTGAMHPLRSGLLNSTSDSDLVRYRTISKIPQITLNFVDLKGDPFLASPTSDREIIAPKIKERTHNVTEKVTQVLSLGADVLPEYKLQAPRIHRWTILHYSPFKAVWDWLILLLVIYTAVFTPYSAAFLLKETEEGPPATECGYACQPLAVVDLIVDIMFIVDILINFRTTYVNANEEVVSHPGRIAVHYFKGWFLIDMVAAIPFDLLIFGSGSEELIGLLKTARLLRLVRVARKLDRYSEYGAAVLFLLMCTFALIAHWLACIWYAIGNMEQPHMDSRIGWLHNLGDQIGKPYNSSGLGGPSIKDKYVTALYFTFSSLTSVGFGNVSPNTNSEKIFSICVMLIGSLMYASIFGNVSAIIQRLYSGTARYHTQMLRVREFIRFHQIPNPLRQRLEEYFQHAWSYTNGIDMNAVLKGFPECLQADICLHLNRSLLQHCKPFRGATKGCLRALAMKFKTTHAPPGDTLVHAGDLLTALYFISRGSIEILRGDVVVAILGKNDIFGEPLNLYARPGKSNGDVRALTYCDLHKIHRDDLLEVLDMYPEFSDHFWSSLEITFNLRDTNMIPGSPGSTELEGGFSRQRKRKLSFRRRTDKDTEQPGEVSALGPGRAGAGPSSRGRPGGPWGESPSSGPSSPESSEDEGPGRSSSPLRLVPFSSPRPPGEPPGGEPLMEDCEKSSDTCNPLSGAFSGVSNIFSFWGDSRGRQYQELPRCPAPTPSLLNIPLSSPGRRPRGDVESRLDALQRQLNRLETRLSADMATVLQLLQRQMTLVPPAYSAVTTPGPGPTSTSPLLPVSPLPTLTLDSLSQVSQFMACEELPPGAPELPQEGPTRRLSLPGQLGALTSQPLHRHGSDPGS

Structure (SMILES)	hERG current change (%, negative = inhibition) at 1uM [%]
COc1ccc(CCN=C(N)NS(=O)(=O)c2ccccc2)cc1	13.7
CC1CCN(C(=O)CCC(=O)Nc2nnc(C(F)(F)F)s2)CC1	17.4
O=C(N/C(=C/c1cccc([N+](=O)[O-])c1)C(=O)N1CCOCC1)c1ccccc1Br	-3.03
N=c1c(C(=O)NCc2ccccc2)cc2c(=O)n3ccccc3nc2n1CCCN1CCOCC1	-80.7
COc1ccc(/C=N/n2c(SC)nnc(C(C)(C)C)c2=O)c(OC)c1	10.2
COc1ccc(C(=O)C(C)OC(=O)CCN2C(=O)C3CC=CCC3C2=O)cc1 (stereo not drawn)	6.39
O=C(CSc1nnc(CNC(=O)c2ccccc2)o1)Nc1ccc2c(c1)OCCO2	14.8
CC1C(c2cccs2)=[N+]([O-])C(C)(C(=O)c2ccc(Cl)cc2)N1O (stereo not drawn)	10.1
C#CCOCCOCCOCCNc1nc(N2CCN(C(=O)[C@H]([C@@H](C)CC)n3cc(CCC[NH+]=C(N)N)nn3)CC2)nc(N2CCN(C(=O)[C@H](CCCC[NH3+])n3cc(CC(C)O)nn3)CC2)n1.[Cl-] (stereo partly drawn)	13.7
CCn1cc(C(=O)O)c(=O)c2cnc(N3CCN(C(=S)NC(=O)c4ccccc4Cl)CC3)nc21	25.5
CCCCNC(=O)N1CCN(c2ccnc3cc(Cl)ccc23)CC1	-46.3
O=C(O)c1cccc2c1C(=O)c1ccc(-c3ccc(Cl)c(C(F)(F)F)c3)cc1S2(=O)=O	6.77
COc1ccc(CNC(=O)C(C)N2C(=O)NC(c3ccccc3)(c3ccccc3)C2=O)cc1 (stereo not drawn)	-56.1
CC(=O)N(CCCN(C)C)CCC(C)CCC=C(C)C (stereo not drawn)	0.619
Oc1ccc(-c2csc(Nc3cccnc3)n2)cc1	5.88
Cc1cc(C)cc(NC(=O)NC2CCCCCCC2)c1	11.7
NS(=O)(=O)c1ccc(NC(=O)COC(=O)COc2ccc3ccccc3c2)cc1	16.8
CN1CC(=O)N(CC(=O)Nc2ccc(SC(F)F)cc2)C1=O	2.95
COc1ccc(-n2nc(C(=O)NCC(=O)NC(C)C)c3ccccc3c2=O)cc1OC	9.79
Nc1nc(-c2ccco2)nn1C(=O)c1ccc([N+](=O)[O-])cc1	13.6
CC(=O)N1CCCN(Cc2cn(-c3ccc(C)cc3)nc2-c2ccc(F)cc2)CC1	4.46

Structure (SMILES)	hERG current change (%, negative = inhibition) at 1uM [%]
COc1ccccc1CNC(=O)C1CCC(=O)N(CCCc2ccccc2)C1 (stereo not drawn)	4.11
CC1CCCC(NC(=O)NC(=O)COC(=O)C2=NN(c3ccccc3)C(=O)CC2)C1C (stereo not drawn)	13.6
O=c1[nH]c(CN2CCc3ccccc32)nc2scc(-c3cccs3)c12	5.09
CCCCNC(=O)CSc1nnc(-c2cccc(S(=O)(=O)N3CCOCC3)c2)o1	2.2
CN1C(=O)/C(=C2\SC(N)=NC2=O)c2ccccc21	12.2
Cc1ccc(NC(=O)CCc2nnc3ccc(N4CCC5(CC4)OCCO5)nn23)cc1F	7.6
CCN(CC)CCNC(=O)c1cc2cc3ccc(OC)cc3nc2o1	1.89
COCCNC(=O)C(=O)Nc1ccc(Cl)cc1C	7.33
C=CCn1c(SCc2ccc(F)cc2)nnc1-c1sc2nc(C)cc(C)c2c1N	8.23
CCOC(=O)N1CCC(NC(=O)C(Cc2ccccc2)NC(=O)C2CCCCC2)CC1 (stereo not drawn)	2.7
Cc1[nH]c(=O)c(C#N)c(C)c1Cc1ccc(Cl)cc1Cl	15.3
COc1ccccc1N/N=C/c1c(CO)cnc(C)c1O.Cl	8.9
O=C(NCCCCc1ccccc1)C1CC(c2cccc([N+](=O)[O-])c2)=NO1 (stereo not drawn)	3.84
COc1ccccc1-c1nnc2n1N=C(C(C)(C)C)CS2	-12.6
COC(=O)COc1ccc(S(=O)(=O)Nc2ccc(C(N)=O)cc2)cc1C	20.7
O=c1cc(-c2ccc(O)cc2)oc2c([C@@H]3O[C@H](CO)[C@@H](O)[C@H](O)[C@H]3O)c(O)c([C@@H]3O[C@H](CO)[C@@H](O)[C@H](O)[C@H]3O)c(O)c12	12.6
C#Cc1ccc([C@@H]2C=C(C(=O)N3CCOCC3)O[C@H](OCCCCO)C2)cc1	15.1
O=C1CN(C(=S)NC(=O)c2ccccc2[N+](=O)[O-])CCN1	20.7
CCn1c(C)[n+](CCOC(C)=O)c2cc(Cl)c(Cl)cc21.[I-]	4.53
Cc1cccc(C)c1NS(=O)(=O)c1ccc(F)cc1	7.58
COc1ccccc1OCC(=O)Nc1ccc(S(=O)(=O)N2CCCC2)cc1	2.95

Source: publication PMC4336329 (PLoS ONE, 2015)
